According to the supplement of paper PMC10369915:
The other results are listed elsewhere or left out. Cut-off read from the data, not from the text of the source: active = 3.2 or more and inactive = the rest. The signal is at background level for most entries.

biological target: SHP2 C-SH2 domain E139D; assay: enrichment score (SH2-bound / input frequency) (ratio); bacterial display of known human phosphotyrosine sites (pTyr-Var adds point mutants) read by sequencing; higher = stronger binding; tyrosines were phosphorylated by kinases first; settings: peptide library: Human pTyr
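Note: displayed peptides selected on beads carrying the immobilized SH2 domain, with library peptides lacking any tyrosine serving as negative controls.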

Enrichment score, inactive:
VETELQTYKHSRQGL [RUFY2_HUMAN_336] 0.601, MPKFACDYCDTALTH [RU1C_HUMAN_8_YA] 0.682, VTEEPEIYEPNFIFF [SF3B2_HUMAN_379] 1.62, FPFEAEAYRNIEPVY [ATR_HUMAN_310] 0.723, ESYTHIQYLFEQESF [SH2D3_HUMAN_283] 2.25, MPKFYCDYCDTYLTH [RU1C_HUMAN_8] 1.35, YIEPEDDYDDVEIPA [SCIMP_HUMAN_131] 1.1, EPPDHQYYNDFPGKE [SHC1_HUMAN_350] 0.84, KQSDDEVYAPGLDIE [SF3A1_HUMAN_456] 0.962, KPSIVTKYVESDDEK [ATRX_HUMAN_89] 1.39, NAEKILGYLNTNVLS [S6A17_HUMAN_377] 0.936, MTEEQKKYANAMKKL [SCN5A_HUMAN_1494_YA] 1.1, DTDQLKLYEEPLSKL [ATR_HUMAN_291] 0.725, TEEQKKYYNAMKKLG [SCN5A_HUMAN_1495] 1.27, VEGHHTIYIGVHVPK [S4A4_HUMAN_30] 1.38, EEPPDHQYYNDFPGK [SHC1_HUMAN_349] 0.856, IITLKDVYDDGKYVY [RPS6KA3_HUMAN_483] 0.983, EENRTGMYVATLAGS [SC6A7_HUMAN_591] 0.531

biological target: SHP2 C-SH2 domain wild-type; assay: as above; settings: peptide library: Human pTyr

Enrichment score, inactive:
VETELQTYKHSRQGL [RUFY2_HUMAN_336] 0.583, MPKFACDYCDTALTH [RU1C_HUMAN_8_YA] 0.711, VTEEPEIYEPNFIFF [SF3B2_HUMAN_379] 1.83, FPFEAEAYRNIEPVY [ATR_HUMAN_310] 0.568, ESYTHIQYLFEQESF [SH2D3_HUMAN_283] 2.48, MPKFYCDYCDTYLTH [RU1C_HUMAN_8] 1.27, YIEPEDDYDDVEIPA [SCIMP_HUMAN_131] 1.21, EPPDHQYYNDFPGKE [SHC1_HUMAN_350] 0.772, KQSDDEVYAPGLDIE [SF3A1_HUMAN_456] 1.07, KPSIVTKYVESDDEK [ATRX_HUMAN_89] 1.18, NAEKILGYLNTNVLS [S6A17_HUMAN_377] 0.79, MTEEQKKYANAMKKL [SCN5A_HUMAN_1494_YA] 0.82, DTDQLKLYEEPLSKL [ATR_HUMAN_291] 0.734, TEEQKKYYNAMKKLG [SCN5A_HUMAN_1495] 0.852, VEGHHTIYIGVHVPK [S4A4_HUMAN_30] 1.53, EEPPDHQYYNDFPGK [SHC1_HUMAN_349] 0.911, IITLKDVYDDGKYVY [RPS6KA3_HUMAN_483] 1.28, EENRTGMYVATLAGS [SC6A7_HUMAN_591] 0.45

biological target: SHP2 N-SH2 domain L43F; assay: as above; settings: peptide library: Human pTyr

Enrichment score, inactive:
VETELQTYKHSRQGL [RUFY2_HUMAN_336] 0.721, MPKFACDYCDTALTH [RU1C_HUMAN_8_YA] 0.491, VTEEPEIYEPNFIFF [SF3B2_HUMAN_379] 1.29, FPFEAEAYRNIEPVY [ATR_HUMAN_310] 0.599, ESYTHIQYLFEQESF [SH2D3_HUMAN_283] 1.98, MPKFYCDYCDTYLTH [RU1C_HUMAN_8] 1.21, YIEPEDDYDDVEIPA [SCIMP_HUMAN_131] 1.43, EPPDHQYYNDFPGKE [SHC1_HUMAN_350] 0.879, KQSDDEVYAPGLDIE [SF3A1_HUMAN_456] 1.36, KPSIVTKYVESDDEK [ATRX_HUMAN_89] 1.14, NAEKILGYLNTNVLS [S6A17_HUMAN_377] 0.885, MTEEQKKYANAMKKL [SCN5A_HUMAN_1494_YA] 0.816, DTDQLKLYEEPLSKL [ATR_HUMAN_291] 0.715, TEEQKKYYNAMKKLG [SCN5A_HUMAN_1495] 0.995, VEGHHTIYIGVHVPK [S4A4_HUMAN_30] 1.82, EEPPDHQYYNDFPGK [SHC1_HUMAN_349] 0.911, IITLKDVYDDGKYVY [RPS6KA3_HUMAN_483] 1.14, EENRTGMYVATLAGS [SC6A7_HUMAN_591] 0.617

biological target: SHP2 N-SH2 domain T42A; assay: as above; settings: peptide library: Human pTyr

Enrichment score, inactive:
VETELQTYKHSRQGL [RUFY2_HUMAN_336] 0.57, MPKFACDYCDTALTH [RU1C_HUMAN_8_YA] 0.645, VTEEPEIYEPNFIFF [SF3B2_HUMAN_379] 1.49, FPFEAEAYRNIEPVY [ATR_HUMAN_310] 0.563, ESYTHIQYLFEQESF [SH2D3_HUMAN_283] 1.93, MPKFYCDYCDTYLTH [RU1C_HUMAN_8] 1.32, YIEPEDDYDDVEIPA [SCIMP_HUMAN_131] 0.848, EPPDHQYYNDFPGKE [SHC1_HUMAN_350] 0.766, KQSDDEVYAPGLDIE [SF3A1_HUMAN_456] 1.03, KPSIVTKYVESDDEK [ATRX_HUMAN_89] 1.3, NAEKILGYLNTNVLS [S6A17_HUMAN_377] 0.824, MTEEQKKYANAMKKL [SCN5A_HUMAN_1494_YA] 1.09, DTDQLKLYEEPLSKL [ATR_HUMAN_291] 0.696, TEEQKKYYNAMKKLG [SCN5A_HUMAN_1495] 0.764, VEGHHTIYIGVHVPK [S4A4_HUMAN_30] 1.34, EEPPDHQYYNDFPGK [SHC1_HUMAN_349] 1.01, IITLKDVYDDGKYVY [RPS6KA3_HUMAN_483] 0.923, EENRTGMYVATLAGS [SC6A7_HUMAN_591] 0.53

biological target: SHP2 N-SH2 domain T52S; assay: as above; settings: peptide library: Human pTyr

Enrichment score, inactive:
VETELQTYKHSRQGL [RUFY2_HUMAN_336] 0.566, MPKFACDYCDTALTH [RU1C_HUMAN_8_YA] 0.703, VTEEPEIYEPNFIFF [SF3B2_HUMAN_379] 1.94, FPFEAEAYRNIEPVY [ATR_HUMAN_310] 0.742, ESYTHIQYLFEQESF [SH2D3_HUMAN_283] 2.14, MPKFYCDYCDTYLTH [RU1C_HUMAN_8] 1.34, YIEPEDDYDDVEIPA [SCIMP_HUMAN_131] 1.25, EPPDHQYYNDFPGKE [SHC1_HUMAN_350] 0.813, KQSDDEVYAPGLDIE [SF3A1_HUMAN_456] 1.15, KPSIVTKYVESDDEK [ATRX_HUMAN_89] 1.44, NAEKILGYLNTNVLS [S6A17_HUMAN_377] 0.787, MTEEQKKYANAMKKL [SCN5A_HUMAN_1494_YA] 0.792, DTDQLKLYEEPLSKL [ATR_HUMAN_291] 0.815, TEEQKKYYNAMKKLG [SCN5A_HUMAN_1495] 1.11, VEGHHTIYIGVHVPK [S4A4_HUMAN_30] 1.52, EEPPDHQYYNDFPGK [SHC1_HUMAN_349] 0.874, IITLKDVYDDGKYVY [RPS6KA3_HUMAN_483] 0.979, EENRTGMYVATLAGS [SC6A7_HUMAN_591] 0.605

biological target: SHP2 N-SH2 domain wild-type; assay: as above; settings: peptide library: Human pTyr

Enrichment score, inactive:
VETELQTYKHSRQGL [RUFY2_HUMAN_336] 0.587, MPKFACDYCDTALTH [RU1C_HUMAN_8_YA] 0.821, VTEEPEIYEPNFIFF [SF3B2_HUMAN_379] 2.22, FPFEAEAYRNIEPVY [ATR_HUMAN_310] 0.595, ESYTHIQYLFEQESF [SH2D3_HUMAN_283] 2.97, MPKFYCDYCDTYLTH [RU1C_HUMAN_8] 1.47, YIEPEDDYDDVEIPA [SCIMP_HUMAN_131] 1.81, EPPDHQYYNDFPGKE [SHC1_HUMAN_350] 0.992, KQSDDEVYAPGLDIE [SF3A1_HUMAN_456] 1.12, KPSIVTKYVESDDEK [ATRX_HUMAN_89] 1.4, NAEKILGYLNTNVLS [S6A17_HUMAN_377] 0.767, MTEEQKKYANAMKKL [SCN5A_HUMAN_1494_YA] 0.889, DTDQLKLYEEPLSKL [ATR_HUMAN_291] 0.811, TEEQKKYYNAMKKLG [SCN5A_HUMAN_1495] 0.778, VEGHHTIYIGVHVPK [S4A4_HUMAN_30] 1.35, EEPPDHQYYNDFPGK [SHC1_HUMAN_349] 1.14, IITLKDVYDDGKYVY [RPS6KA3_HUMAN_483] 0.97, EENRTGMYVATLAGS [SC6A7_HUMAN_591] 0.48
